# Test results from the supplement of paper PMC11417369.
# ± gives the standard deviation of the averaged measurements. The list shows a part of the results.
# Tested on: PfAP2-EXP AP2 domain (GST-tagged)
# Test: gcPBM binding intensity (ln(normalized median fluorescence intensity)); higher = stronger DNA binding
# In short: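 Plasmodium falciparum DNA-binding domains carrying a GST tag were expressed in E. coli and applied for 1 h, at about 25 μg on average, to an Agilent 4 × 180k array. The array held primer-extended double-stranded 36-bp intergenic genomic probes together with negative controls, and binding took place in 1× PBS with 1% milk, 0.2 mg/ml BSA, 0.5% salmon testes DNA and 0.03% Triton X-100. An Alexa488 anti-GST antibody detected bound protein, and the array was scanned at 488 nm. Binding intensity is taken as the highest Masliner-normalised natural-log median intensity across replicate spots of either probe orientation.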
row,Sequence,gcPBM binding intensity (ln)
1,TAAAAGTGATATGTTCGTACGTATTTATATGTAATA [XGTACX_site211],8.44 ± 0.43
2,TCTCCATCTTATGAGACATGCACTTTTTATTTAATA [TGCATGCA_site121],8.79 ± 0.2
3,GTATATATATATATATATATATATATATATATATAT [CACACA_negctrl_site609],9.98 ± 0.46
4,ATGATATGCAATTTAGTGCATAACAAAATTGGTATA,8.55 ± 0.042
5,AAAAAAAAAAAAAAAACACACATACCCATATATTTT [CACACA_site6013],8.56 ± 0.29
6,TTGTGTAAATGTTAAGTGCATTTGGTAAAATATAAA [GTGCAC_site9699],8.64 ± 0.2
7,TTTTTCTTTTTTTGGGGTACAGGGAAATCTATATTT [XGTACX_site7025],9.14 ± 0.57
8,TCTTAATTTTTGAAGGTACACACTAATATATTAAAT [CACACA_site1191],8.62 ± 0.42
9,CCATAAAAAGGTACATGTACAAAAAGCAAAAATATG [XGTACX_site5543],9.14 ± 0.45
10,ATATTTTTCCAACATCGTACATTATGAGTCAAAATT [XGTACX_site993],8.71 ± 0.38
11,CCCATATTATAGGTGTGTACATAAAAGTATATATAA [XGTACX_site3629],8.94 ± 0.54
12,AGAAGAAATATGTAAAAAATTTTATATTCACACACA [GTGCAC_negctrl_site441],8.58 ± 0.37
13,TTTCTTATCAACCTTTTTTTTTTTTTTTTATTCTTA [TGCATGCA_negctrl_site162],8.41 ± 0.47
14,CAATTAAAGATATGAACACACATGTGAACTTTCTAT [CACACA_site7796],8.5 ± 0.49
15,AATTTAATTTTTTCGTGTACTTATATAGGAGGTTTT [XGTACX_site8310],8.77 ± 0.47
16,TGTAGACATTAATGTAGTACAATATATATATATATT [XGTACX_site8608],8.68 ± 0.31
17,TGTTCTTATACTAATAGTACTTTTAGGTACTATAAA [XGTACX_site2954],8.22 ± 0.28
18,TTTATATATAATGTTGCATGTCAAATTTGTATATGG [TGCATGCA_site246],9.12 ± 0.3
19,TGTAGAAATGGGTGCACACACATATATAATATATAT [CACACA_site2507],9.34 ± 0.59
20,AACTCATCTTATAATTGTACATATTTATAAAAAGTA [XGTACX_site6522],8.46 ± 0.37
21,TTAGGGATGCTGAAATGTACACATTTAAATTATATA [XGTACX_site3000],8.44 ± 0.29
22,AAAAAAAAAAAAAAAAAAAAAAAAAAAAAATATATA [GTGCAC_negctrl_site6],9.105 ± 0.078
23,AATGTAAAACTAATATGTACATATCTCTAAAGAAAT [XGTACX_site8429],8.65 ± 0.41

row,Sequence,gcPBM binding intensity (ln)
1,ATTGTCTTCCTTCTGGTGCGATGTATAGGTAAAGAT,8.81 ± 0.37
2,CGTACTAACATAAAGACACACACCACATATAATAAA [CACACA_site3603],8.72 ± 0.63
3,TACGTGAAATTATATACACACATAAATATGTCTGTA [CACACA_site3122],8.16 ± 0.36
4,AAGCTACACATAGATTATTATTAATTTAATGTATAT [CACACA_negctrl_site548],8.05 ± 0.32
5,AATTATTAGCGTGGTGTGCACAAAATTATGGACACA,8.85 ± 0.17
6,ACAAGCTTTCATAAGGTGCAATGATTTAACAAAAAA [GTGCAC_site9726],8.62 ± 0.23
7,AGCATTTATGAAAAATGTACACACATCAAATGCTTA [XGTACX_site8749],8.65 ± 0.31
8,ACACATGACATCCGTTGTACAATCATCATAAAAATG [XGTACX_site5397],8.91 ± 0.36
9,TATAAAAATAATATTACACACATGTAAAATGTCGGT [CACACA_site3264],8.31 ± 0.35
10,AGCAACCCCCTAGCTACACACATATAGATATATATA [CACACA_site951],9.69 ± 0.56
11,TAAAATTTTTTTGTTTGTACATATATATATATAATA [XGTACX_site5609],8.72 ± 0.52
12,TTTCCCTTAAATTAATGTACATAAATTGAAAATACC [XGTACX_site1602],8.67 ± 0.3
13,TATATATTATACACGTGTACACATTATAACAATATA [XGTACX_site7799],8.65 ± 0.31
14,TTGCCCCAGGAGTTCACACACATAATAGATTGTCAC [CACACA_site726],8.63 ± 0.44
15,AAAAAAAAAAAACACACACACAAAAAAAAATATATA [CACACA_site1105],8.38 ± 0.61
16,AAAAAAATAAATAAATACATACATATATATATGTAT [GTGCAC_negctrl_site510],8.2 ± 0.37
17,TTGTTTCCTTAATATTCACACACATATATATAATAT [CACACA_site8553],8.89 ± 0.48
18,ATAAAAATTAAAGAATGTACACATATAATATATGTA [XGTACX_site8735],8.38 ± 0.34
19,AAAAGTTATAGACACACACACATATAAATATAGATT [CACACA_site6617],8.53 ± 0.48
20,ATAATCCTTAAACACACACACACACTAATAAATAAA [CACACA_site8052],8.67 ± 0.62
21,TATAAATGTATACAAGTGCATATTATTCACACATAA,8.73 ± 0.16
22,TTTTAAAAAAATAAATAAATAGAAAAAAAAAATAAA [TGCATGCA_negctrl_site579],8.45 ± 0.39
23,GGATATATTTTATGTACACACATATATAACGGATAT [CACACA_site4847],8.77 ± 0.28

row,Sequence,gcPBM binding intensity (ln)
1,TATTATGACTTAAGTTGTACTGTTGAAAGAAGAAAA [XGTACX_site2985],8.75 ± 0.44
2,TAATATATTGTAGATGCATGCATTAACTATTACAAA [TGCATGCA_site190],9.7 ± 0.11
3,CGTATAAATAAATACACACACATATAAATATGTAAA [CACACA_site6236],8.34 ± 0.44
4,TATCAATGGAAAATATATATTTGTATATATGTAATA [XGTACX_negctrl_site257],8.46 ± 0.4
5,GTATTATACCATAATGCATGTTAACTTCAAAAGAAA [TGCATGCA_site839],8.69 ± 0.52
6,GAAATTATTATATAAACACACATTTATTTTATTTTA [CACACA_site1957],8.21 ± 0.36
7,ATAACATAACATAATACACACATATAAAAAAGAAAT [CACACA_site3028],9.04 ± 0.67
8,ATATAATATATTTTCACACATATTTTATGATGATAA [CACACA_site5614],8.3 ± 0.42
9,AAAAAAAAAAAAAAAGGTACAGTAAAAAATTCCTCT [XGTACX_site5947],8.43 ± 0.14
10,AAATTTAATTTTATATCACACATTAAATTTTAATGG [CACACA_site4251],8.4 ± 0.45
11,TATTCTATAAATATATTTTTTTAATTTTTTATTTTA [CACACA_negctrl_site307],8.27 ± 0.34
12,TATGTAAAAAGAGAAAAAAAAAAGAACGATAATTTC [CACACA_negctrl_site946],8.68 ± 0.49
13,ATATAAGAATTTAAGAGTACATTCACTTCAAATTTA [XGTACX_site2115],8.26 ± 0.43
14,AGGTGTATCATAAAATGTACATACATACATACATAA [XGTACX_site4479],8.46 ± 0.38
15,TATTATTATTTTTTATGTACTAACGACAAAAATATT [XGTACX_site252],8.47 ± 0.3
16,AAAATGTGCTTTTCAGTGCAATTTTTTTTGTAATAA [GTGCAC_site9566],8.2 ± 0.22
17,TTGTAATTCATTCAAATATAAAATAAATAAATATGA [CACACA_negctrl_site349],8.28 ± 0.34
18,TACATCGGTATATAAACACACAACAAAAATGCTTAC [CACACA_site5983],8.64 ± 0.52
19,AAAATAATTAAAAAAAGTACTCGTAATATAAATATA [XGTACX_site4967],8.7 ± 0.45
20,ACAAATAAATAAAAATGTACAAATGAATACATCTTA [XGTACX_site3780],8.19 ± 0.29
21,TTAAAAGATATTACATGTACATATTCAATATATGTA [XGTACX_site5895],8.24 ± 0.35
22,TTTTTTTAAAAAAACAAAAAAAAAAAAAATATAAAA [TGCATGCA_negctrl_site511],8.23 ± 0.45
23,TTTGTTATTTATTAGTGTACAAAAAAGCATTTCAAA [XGTACX_site8729],8.44 ± 0.3

row,Sequence,gcPBM binding intensity (ln)
1,AAATTAAATAAATTTACACACTAAAAGTTACCTATA [CACACA_site6623],8.15 ± 0.38
2,AAAAAAAAAAAAAAAAAAAAAAAAAAAAAAAAAAAT [CACACA_negctrl_site882],9.25 ± 0.16
3,TACATTTATAATAATACACACATAAATTTACATTTT [CACACA_site3463],8.35 ± 0.3
4,TATGAAAATTAAGTTTGTACACAAGTGGAAAAAAAA [XGTACX_site6129],8.61 ± 0.28
5,ATATAAAGAAATTAATTTTTCAACAATAAAAATATA [CACACA_negctrl_site1262],8.27 ± 0.42
6,AATAATGTATAATGATGTACAAAAAAGGAAGACATA [XGTACX_site2474],9.1 ± 0.53
7,ATATTTTGTAATATTTGTACATATATTATACATATA [XGTACX_site963],8.49 ± 0.36
8,TTTTTTTTGCGTACAGTGCAAATTTATTTACTATTC,8.84 ± 0.2
9,AAATATAATAATATATGTACATATATATATATATAT [XGTACX_site6980],10.1 ± 0.3
10,AAAAAAATATATATATATATATATATATATATATAT [TGCATGCA_negctrl_site7],10.1 ± 0.26
11,CGTGGGAGCGGACACACACACACACCCATATATATA [CACACA_site4340],8.7 ± 0.13
12,TCAACAAATAAACTTTGTACATATATACAAAATATA [XGTACX_site4447],8.35 ± 0.48
13,AATTTAAAAGCTTGTGGTACTTTTGCTCTTCCTTTG [XGTACX_site3148],8.64 ± 0.59
14,TATACATATTATATATGTACACATATTATATGTATA [XGTACX_site5851],8.27 ± 0.15
15,TATGTATTAAATTTTACACACATGATTCTCTATATG [CACACA_site8720],8.62 ± 0.64
16,ATGAATTATATATTATGTACATATAATTAAAATATA [XGTACX_site7140],8.34 ± 0.16
17,TTTAAAAAAAAAAAAAAAAATTAAATGAATTATTAA [CACACA_negctrl_site1121],7.71 ± 0.49
18,TAACATGATATATAATGTACATATAAGATATTTATA [XGTACX_site4383],8.42 ± 0.3
19,ATACAAAAAAGAAGGACACACAGAAGTAACATGTTA [CACACA_site3074],9.06 ± 0.59
20,ATATATATATATGTATGTACGTATGTATTTACTGCT [XGTACX_site3839],9.8 ± 0.26
